Data as given in PubChem BioAssay AID1963576 (National Center for Advancing Translational Sciences (NCATS), 2024).
Screen size: about 46,000 compounds; about 60 (0.1%) were called active. Inconclusive results (about 3%) are left out. Calls come from the whole dose curve; as a rule, active = well fitted inhibition curve with a large enough effect; inconclusive = small, poorly fitted or top-dose-only effect; inactive = no such curve, though single readings can be large or run the other way. Some of the results follow.

Assay: Primary qHTS assay for Inhibitors of ovarian cancer metastasis using an organotypic tumor microenvironment (TME) model.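 For activity change, negative = inhibition: plate controls were DMSO wells for no effect and tomatine positive control wells for full effect.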 Note: nearly all actives have a fitted effect of over 65% in size.
Conditions: SKOV3ip1-GFP adhesion/invasion on 3D omental model, fluorescence; series mostly up to 45.8 µM; activity change, negative = inhibition: at the top concentration
How it was run: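 A 3D layer of primary human omental fibroblasts, mesothelial cells, fibronectin and collagen I, grown 48 hr, received SKOV3ip1-GFP cells in serum-free medium plus compounds at 0.36-46 umol/L. After 2 hr RT and 16 hr 37 C, fixed adherent GFP cells were counted; normalized to DMSO and tomatine.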

outcome, inactive:
COc1ccc(CNC(=O)CCS(=O)(=O)c2cc(Br)cc3c2N(C(C)=O)C(C)C3)cc1 (stereo not drawn)
Cn1cnc(S(=O)(=O)N2CCCC(C(=O)NCc3ccc(Cl)cc3)C2)c1 (stereo not drawn)
Cc1oc2ccc(O)c(CN3CCOCC3)c2c1C(=O)Nc1cccc(C(F)(F)F)c1
CC(C)CCNC(=O)c1ccc2c(c1)NC(=O)C(C(C)C)N2 (stereo not drawn)
Cc1c(C)n(Cc2ccccc2)c2ccc(C(=O)N3CCN(c4ccc(F)cc4)CC3)cc12
COc1ccc(-n2c(SCC(N)=O)nc3c(oc4ccccc43)c2=O)cc1
Cc1ccc(-c2onc(C)c2C)cc1S(=O)(=O)N1CCOc2ccc(Cl)cc21
COc1c(Cl)cc(C(=O)N(Cc2ccccc2F)C2CCS(=O)(=O)C2)cc1Cl (stereo not drawn)
CCC(=O)N1c2ccc(S(=O)(=O)CCC(=O)N3CCN(c4cc(C)ccc4C)CC3)cc2CC1C (stereo not drawn)
O=C(NC1CC(=O)N(c2ccccc2)C1)C(c1ccccc1)c1ccccc1 (stereo not drawn)
O=C(Nc1ccccc1C(F)(F)F)C1CCN(S(=O)(=O)Cc2ccccc2)CC1
Cc1ccc(-n2c(=O)c3sc4ccccc4c3n(C)c2=O)cc1F
CC(CNC(=O)CN1C(=O)COc2ccc(S(=O)(=O)N3CCCCCC3)cc21)c1ccccc1 (stereo not drawn)
Cc1ccccc1CNC(=O)c1cccc(NC(=O)N2CCSc3ncccc32)c1
CCOc1ccc(CC(=O)Nc2c(C(=O)Nc3ccc(OC)cc3OC)oc3ccccc23)cc1
CCOc1ccc(CCNC(=O)c2nc(-c3cccc(F)c3)n3c2CCCCC3)cc1OCC
CC(C)c1nc2ccc(C(=O)NCCCN3CCN(c4cccc(Cl)c4)CC3)cc2o1
Cc1cccc(N2CCN(C(=O)C3CCCN(S(=O)(=O)c4ccc(Br)s4)C3)CC2)c1C (stereo not drawn)
Cc1cccn2c(Nc3ccccc3)c(-c3cccs3)nc12
CCc1cccc(CC)c1NC(=O)Cn1c(=O)c(-c2cc(C)ccc2NC(C)=O)nc2ccccc21
COc1cccc(N(Cc2nnc3n2CCCCC3)C(=O)Nc2ccccc2)c1

Activity change, negative = inhibition, inactive:
COc1ccc(N2CCN(c3ccc(-c4nc(-c5ccccc5)no4)cc3[N+](=O)[O-])CC2)cc1 3.06%
CCn1c2ccccc2c2cc(CN3CCN(Cc4cc(OC)c(O)c(OC)c4)CC3)ccc21 -28.3%
Cc1ccc(C)c(NC(=O)Cn2nc(C)c3nn(-c4ccc(Cl)cc4)c(C)c3c2=O)c1 8.39%
Cc1ccc(NC(=O)c2sc3ncn(Cc4cccc(F)c4)c(=O)c3c2C)c(Br)c1 1.94%
O=C(Nc1cccc(Cl)c1Cl)c1ccc2c(c1)N(Cc1cccc(Cl)c1)C(=O)c1ccccc1S2=O (stereo not drawn) 2.86%
COc1cc2[nH]c(=O)n(Cc3ccc(C(=O)N4CCN(c5ccc(Cl)cc5)CC4)cc3)c(=O)c2cc1OC -1.54%
Cc1ccccc1Nc1c(-c2cccc(Cl)c2)nc2ncccn12 -2.38%
CCN(CC)S(=O)(=O)c1ccc2c(c1)N(CC(=O)N1CCN(c3ccc(OC)cc3)CC1)C(=O)CO2 6.41%
COc1ccc(S(=O)(=O)NCCSc2nnnn2-c2ccccc2)cc1OC 9.89%
Cc1ccc(Cl)cc1N1CCN(C(=O)CN2C(=O)COc3ccc(S(=O)(=O)N4CCCCCC4)cc32)CC1 2.77%
CCN(Cc1ccccc1)C(=O)c1cc(-c2ccccc2)n[nH]1 -9.76%
Cc1[nH]c(C=C2C(=O)Nc3ccc(S(=O)(=O)Cc4c(Cl)cccc4Cl)cc32)c(C)c1C(=O)N1CCC[C@H]1CN1CCCC1 5.34%
COc1cc(/C=C(\C#N)c2nc3ccccc3[nH]2)ccc1OCc1ccccc1F -9.75%
CC(C)CN1CCc2nc(Nc3ccc(F)cc3F)ncc2C1 -0.207%
O=C(Cc1cccs1)Nc1c(C(=O)Nc2ccc(F)cc2)oc2ccccc12 -11.2%
CC(=O)N1CCc2c(sc3c2c(=O)n(Cc2ccccc2)c(=O)n3Cc2ccccc2F)C1 -9.88%
COc1cc(N2CCN(C)CC2)ccc1Nc1nc(N)c(C(=O)c2c(Cl)cccc2Cl)s1 7.95%
CC(C)(C)OC(=O)N1CCc2nc(N3CCN(c4ncccn4)CC3)ncc2C1 3.23%
CCS(=O)(=O)N1CCc2cc(C(=O)N3CCN(c4ccccc4OC)CC3)ccc21 -19.5%
CCC(Sc1nc(-c2ccc(F)cc2)nc2c1Cc1c(CO)cnc(C)c1O2)C(=O)Nc1ccc(F)cc1 (stereo not drawn) -4.08%
COc1ccc(CCC(=O)NCc2ccc3c(c2)CCN3C(=O)c2ccccc2)cc1 -40.8%
COc1ccc(C(CNC(=O)c2ccc(F)cc2)N2CCCC2)cc1 (stereo not drawn) -3.34%
Cn1c(=O)c2c(nc(SCC(=O)Nc3ccc(F)cc3)n2Cc2ccccc2F)n(C)c1=O -41.6%
CCCSc1ncc(Cl)c(C(=O)Nc2c(C(=O)c3ccc(C)cc3)oc3ccccc23)n1 3.47%
CCOc1ccc2nc(NC(=O)c3nc(SCc4ccccc4C)ncc3Cl)sc2c1 74.6%
Cc1cc(C)cc(NC(=O)N2CCC(CN3CCCCCC3)CC2)c1 -8.95%
COC(=O)c1c(NC(=O)/C(C#N)=C/c2ccc(OC)cc2)sc2c1CCC2 16.4%
O=C(CSc1nc2nccnc2c(=O)n1CCc1c[nH]c2ccccc12)Nc1ccccc1 -5.48%
CCc1ccc(C(=O)c2cn(CC(=O)Nc3cc(OC)ccc3OC)c3nc(C)ccc3c2=O)cc1 -8.64%
COc1ccc(S(=O)(=O)N2CCC(N3CCN(Cc4ccc(F)cc4)C(=O)C3=O)CC2)cc1 -0.0113%
Cc1ccc(C(=O)N2CCCCC2)cc1NC(=O)c1nsc2ccccc12 -6.06%
Cc1c(CCNC(=O)c2ccc(Br)o2)sc2nc(-c3ccc(Cl)cc3)nn12 -3.11%
Cc1oc2cc3oc(=O)c(CC(=O)NCc4ccccc4)c(C)c3cc2c1C -19.2%
Cc1ccc(C)c(NC(=O)c2ccc3c(c2)CCCN3S(C)(=O)=O)c1 -3.83%
COc1cccc(NC(=O)c2oc3ccccc3c2NC(=O)c2ccc(F)c(F)c2)c1 7.22%
CCCCNC(=O)c1nn(-c2ccc(C)cc2)c(=O)n(C)c1=O 3.89%
COc1ccc(CCNC(=O)c2cccc(-n3cnc4cccnc43)c2C)cc1OC 1.59%
Cc1ccccc1NC(=O)c1c(NC(=O)c2ccco2)sc2c1CCC(C(C)(C)C)C2 (stereo not drawn) 1.63%
CCC(=O)N1CCc2cc(Br)cc(S(=O)(=O)N3CCCC(C(=O)Nc4cccc(C)c4C)C3)c21 (stereo not drawn) 27.4%
COc1ccc(N2C(=O)CS(=O)(=O)C23C(=O)N(Cc2ccc(F)cc2)c2ccc(C)cc23)cc1 (stereo not drawn) 30.7%
COc1ccccc1CNC(=O)CSc1nc2nc(C)c(Cc3ccccc3Cl)c(C)n2n1 0.792%
Cc1ccc(Cl)cc1NC(=O)C1CCCN(S(=O)(=O)c2cccc3cccnc23)C1 (stereo not drawn) 1.96%
CC(Oc1ccccc1)C(=O)Nc1ccc(OCc2cc(=O)n3ccsc3n2)cc1 (stereo not drawn) 4%
CCOC(=O)c1c(S(=O)(=O)N2CCCC(C(=O)Nc3cccc(C#N)c3)C2)c(C)n(C)c1C (stereo not drawn) 2.35%
Cc1ccc(S(=O)(=O)c2cn(CC(=O)Nc3ccccc3C)c3cc4c(cc3c2=O)OCO4)cc1 17.3%
Cn1c(=O)c2c(SCC(=O)NCc3ccco3)nc(-c3cccc(F)c3)nc2n(C)c1=O 3.24%
CCOC(=O)c1c(S(=O)(=O)NCC(=O)Nc2ccc(C)c(N(C)C)c2)c(C)n(C)c1C 2.74%
NS(=O)(=O)c1ccc(CCNC(=O)c2ccc3nc(CCc4ccccc4)oc3c2)cc1 -9.93%
Cc1cc2c(cc1S(=O)(=O)N(C)CC(=O)Nc1ccc(C#N)cc1)OCC(=O)N2 2.83%
Cc1nc(NC(=O)N2CCC[C@@H]2C(N)=O)sc1-c1csc(C(C)(C)C)n1 3.45%
COc1ccc(-c2nc3cc(C)ccn3c2NC(=O)c2ccc(F)cc2)cc1 2.46%
CCOc1ccc(CNC(=O)c2cnc3sc(N4CCOCC4)nn3c2=O)cc1OC 2.99%
CCOC(=O)N1CCN(Cc2nc3cc([N+](=O)[O-])ccc3n2C(C)C)CC1 -11.4%
Cc1cccc(N2CCN(C(=O)CN3C(=O)COc4ccc(S(=O)(=O)N5CCC(C)CC5)cc43)CC2C)c1 (stereo not drawn) 17%
Cc1ccc2scc(N3CCC(C)CC3)c(=O)c2c1 -22%
CCOC(=O)C1CCC(CN(Cc2ccc(Cl)cc2)S(=O)(=O)c2cc(Cl)cc(Cl)c2)CC1 (stereo not drawn) -15.3%
COc1cccc(NS(=O)(=O)c2ccc3c(c2)[C@H]2C=CC[C@H]2[C@@H](c2ccccc2Cl)N3)c1 -34.5%
COc1cccc(CNC(=O)Cc2ccc(NC(=O)N3CCSc4ncccc43)cc2)c1OC -9.5%
CCOc1ccccc1NC(=O)CCn1cnnn1 9.71%
CCN(CC)CCNC(=O)CSc1nc2nc(C)c(Cc3ccccc3)c(C)n2n1 10.5%
Cc1ccc(NC(=O)C2CCN(S(=O)(=O)c3ccc4[nH]c(=O)ccc4c3)CC2)cc1C -7.76%
Cc1ccccc1CNc1nc(N(C)C)nc2c1cnn2C 4.34%
O=C1COc2cc(S(=O)(=O)CCC(=O)N3CCN(c4ccccc4F)CC3)c(Cl)cc2N1 4.8%
CCc1ccccc1NCc1nnc2n1CCCCC2 -3.23%
Cn1c(=NC(=O)c2ccc(S(=O)(=O)N3CCCC3)cc2)sc2cc(F)ccc21 3.9%
CCCc1cc(N2CCN(c3ccccc3)CC2)n2cnnc2n1 -1.66%
CCc1ccc(CN(Cc2ccco2)c2cnc(S(C)(=O)=O)nc2C(=O)Nc2c(C)cccc2C)cc1 2.16%
CCOc1ccc(CCNC(=O)Cn2c(-c3cccs3)cc3cc(F)ccc32)cc1OCC 7.69%
Cc1nc2nc(NC(=O)c3ccc(C(C)(C)C)cc3)[nH]n2c(=O)c1Cl -2.39%
Cc1oc(-c2ccccc2F)nc1CSCC(=O)N1CCN(c2ccccc2)CC1 -2.22%
COc1cccc(CN2CCCN(CC(=O)Nc3ccc4c(c3)OCCO4)S2(=O)=O)c1 2.98%
CCOc1ccccc1NC(=O)C1CCN(S(=O)(=O)c2cc(Br)cc3c2N(C(C)=O)CC3)CC1 -7.58%
